The campaign covered roughly 190,000 compounds. About 520 (0.27%) were called active. The shares of active, inactive and inconclusive entries below differ from those in the screen.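 Rule for the calls: active = GTP binding activity at least 20 points away from the 100% control level, either lower or higher; inconclusive = compound flagged as likely green fluorescent, judged across all proteins; inactive = the rest.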
These compounds were tested against Ras-related C3 botulinum toxin substrate 1 (Homo sapiens) (UniProt P63000) (assay: wildtype Rac1 GTP binding modulators, primary screen, biochemical, GST-Rac1 beads, flow cytometry, multiplex (AID 757)). Conditions: fluorescent GTP binding, at 10 µM, actives lie on both sides, 0 = cold GTP competed, 100 = untreated.

Structure (SMILES) | GTP binding activity (% of control)
N#CCCCCN1c2cccc3cccc(c23)S1(=O)=O | inconclusive: 93%
O=C(Nc1ccc(-c2ccc([N+](=O)[O-])cc2)cc1)c1ccccc1F | inconclusive: 103%
Cc1ccc(Oc2ncccc2/C=N/OCc2ccc(Cl)c(Cl)c2)cc1 | inconclusive: 90%
CC(C)n1c(C(O)c2ccccc2)nc2ccccc21 (stereo not drawn) | inconclusive: 103%
O=C(CCc1nnc(Cc2c[nH]c3ccccc23)o1)NCC1CC12CCCCC2 (stereo not drawn) | inactive: 102%
COc1ccccc1OCCn1cc(C(=O)O)c2ccccc21 | active: 120% [activator]
N=C1SCC(=O)N1c1ncc(Cc2ccc(F)cc2)s1 | inactive: 101%
CCCSc1nnc(CN2CCOCC2)n1C | inconclusive: 107%
CC1CCN(C(C(=O)O)c2ccccc2)CC1 (stereo not drawn) | inactive: 99%
Cc1ccc(-c2ccc(/C=C3/NC(=O)NC3=O)o2)cc1[N+](=O)[O-] | inconclusive: 88%
S=C(NCc1ccc2c(c1)OCO2)NC1CC1 | inactive: 103%
CC1CC(=O)N(Cc2ccccc2)c2ccccc2N1C=O (stereo not drawn) | inconclusive: 109%
CC(C)Cc1nn2c(=O)cc(O)nc2s1 | inconclusive: 104%
Cc1ccc(C)c2sc(NC(=O)c3nc4ccccc4s3)nc12 | inactive: 100%
O=C(CC1Nc2ccccc2NC1=O)c1ccccc1 (stereo not drawn) | inconclusive: 111%
CC1CCCCC1NC(=O)/C=C/c1nc2ccccc2s1 (stereo not drawn) | inconclusive: 90%
COc1cccc(C2=CC(c3ccccc3)n3ncnc3N2)c1 (stereo not drawn) | inconclusive: 105%
O=C1OCC2=C1C(c1ccccc1)CC(=O)N2c1ccc(F)cc1 (stereo not drawn) | inactive: 104%
c1ccc(-c2csc(-n3cccn3)n2)cc1 | inactive: 99%
CC1(C)Cc2c(sc3nc(-c4cc5ccccc5o4)n(N)c(=O)c23)CO1 | inconclusive: 95%
Cc1onc(-c2c(Cl)cccc2Cl)c1C(N)=O | inconclusive: 110%
Oc1ccc(C2=Nn3c(nnc3-c3ccco3)SC2)cc1O | active: 51%
N#CC1(C#N)CC(C=O)=C(N)C1(C#N)CC(=O)C12CC3CC(CC(C3)C1)C2 (stereo not drawn) | inactive: 96%
CC(C)(C)Cc1nnc(NC(=O)Cc2cccs2)s1 | inactive: 101%

Structure (SMILES) | GTP binding activity (% of control)
OC1(C#CCCN2CCCCC2)c2ccccc2-c2ccccc21 | inconclusive: 98%
Nc1cccc(S(=O)(=O)c2cccc(N)c2)c1 | inconclusive: 34%
COC(=O)c1sc2ncccc2c1OCc1ccccc1Cl | inconclusive: 93%
CCc1sc(N2C(=O)C3C4CCC(C4=C(C)C)C3C2=O)nc1-c1ccccc1 (stereo not drawn) | inconclusive: 94%
CCOC(=O)c1c(NC(=O)CN2C(=O)NC(C)(c3ccccc3)C2=O)sc(C)c1C (stereo not drawn) | inactive: 104%
Cc1ccc(S(=O)(=O)c2c(C)cc(C)nc2Cl)c(C)c1 | inconclusive: 93%
CCOc1nc(NC(=O)NS(=O)(=O)c2ccccc2F)nc(-c2ccccc2)n1 | inconclusive: 95%
CN(C)CCN(C(=O)c1ccc(N2C(=O)CCC2=O)cc1)c1nc2cc3c(cc2s1)OCCO3 | inactive: 98%
O=C(OCc1cn(-c2ccc(Cl)c(Cl)c2)nn1)c1ccccc1 | inconclusive: 90%
Cc1ccc(/C=C/S(=O)(=O)NCc2ccc(F)cc2)cc1 | inactive: 99%
Clc1ccccc1CSc1nnc(/C=C/c2ccccc2)o1 | inconclusive: 94%
N#Cc1c(C(F)(F)F)cc(-c2ccc(Cl)cc2)[nH]c1=O | active: 78%
CCC(C)c1ccc(NC(=O)CSc2nncn2N)cc1 (stereo not drawn) | inconclusive: 107%
COc1ccc(CCNC(=O)Cn2c(=O)n(-c3ccc(C)c(F)c3)c(=O)c3sccc32)cc1OC | inactive: 104%
COc1ccccc1N(CC(=O)Nc1cc(C)on1)S(=O)(=O)c1ccc(Cl)cc1 | inconclusive: 91%
COc1ccc(C2N(Cc3ccccc3)CC(=O)N2/N=C(\C)c2ccccc2)cc1 (stereo not drawn) | inactive: 103%
Cc1onc(-c2c(Cl)cccc2Cl)c1C(=O)NCC1CCCO1 (stereo not drawn) | inconclusive: 110%
CCCNC(=O)CN(c1cccc(F)c1)S(C)(=O)=O | inactive: 106%
O=C(NCc1ccccc1Cl)C1CCC(CNc2nc(=S)[nH]c3ccccc23)CC1 (stereo not drawn) | active: 78%
CCCNC(=O)Cn1nc(C(F)(F)F)c2c1CCCC2 | inconclusive: 104%
CC1(C)Cc2cccc(OCC(O)CNCc3ccccn3)c2O1 (stereo not drawn) | inconclusive: 103%
O=C(NCCOc1ccc(Cl)cc1)C1CC(=O)N(c2ccc(F)cc2)C1 (stereo not drawn) | inconclusive: 103%
Cc1ccc(CN2CC(C(=O)Nc3ccc4c(C)cc(=O)oc4c3)CC2=O)cc1 (stereo not drawn) | inconclusive: 92%
CCCC(=O)Nc1ccc(N2CCN(S(C)(=O)=O)CC2)cc1 | inactive: 102%

Reference: PubChem BioAssay AID757 (NMMLSC, 2007)
